The values below come from PMC4336329 (PLoS ONE, 2015).

Among all 310,000 compounds or so, about 2,200 (0.71%) showed an effect of 50% or more. The effect is printed as a negative number. Some of the results follow.

human ether-à-go-go-related gene (hERG) potassium channel, sequence (Q12809 whole entry, looked up): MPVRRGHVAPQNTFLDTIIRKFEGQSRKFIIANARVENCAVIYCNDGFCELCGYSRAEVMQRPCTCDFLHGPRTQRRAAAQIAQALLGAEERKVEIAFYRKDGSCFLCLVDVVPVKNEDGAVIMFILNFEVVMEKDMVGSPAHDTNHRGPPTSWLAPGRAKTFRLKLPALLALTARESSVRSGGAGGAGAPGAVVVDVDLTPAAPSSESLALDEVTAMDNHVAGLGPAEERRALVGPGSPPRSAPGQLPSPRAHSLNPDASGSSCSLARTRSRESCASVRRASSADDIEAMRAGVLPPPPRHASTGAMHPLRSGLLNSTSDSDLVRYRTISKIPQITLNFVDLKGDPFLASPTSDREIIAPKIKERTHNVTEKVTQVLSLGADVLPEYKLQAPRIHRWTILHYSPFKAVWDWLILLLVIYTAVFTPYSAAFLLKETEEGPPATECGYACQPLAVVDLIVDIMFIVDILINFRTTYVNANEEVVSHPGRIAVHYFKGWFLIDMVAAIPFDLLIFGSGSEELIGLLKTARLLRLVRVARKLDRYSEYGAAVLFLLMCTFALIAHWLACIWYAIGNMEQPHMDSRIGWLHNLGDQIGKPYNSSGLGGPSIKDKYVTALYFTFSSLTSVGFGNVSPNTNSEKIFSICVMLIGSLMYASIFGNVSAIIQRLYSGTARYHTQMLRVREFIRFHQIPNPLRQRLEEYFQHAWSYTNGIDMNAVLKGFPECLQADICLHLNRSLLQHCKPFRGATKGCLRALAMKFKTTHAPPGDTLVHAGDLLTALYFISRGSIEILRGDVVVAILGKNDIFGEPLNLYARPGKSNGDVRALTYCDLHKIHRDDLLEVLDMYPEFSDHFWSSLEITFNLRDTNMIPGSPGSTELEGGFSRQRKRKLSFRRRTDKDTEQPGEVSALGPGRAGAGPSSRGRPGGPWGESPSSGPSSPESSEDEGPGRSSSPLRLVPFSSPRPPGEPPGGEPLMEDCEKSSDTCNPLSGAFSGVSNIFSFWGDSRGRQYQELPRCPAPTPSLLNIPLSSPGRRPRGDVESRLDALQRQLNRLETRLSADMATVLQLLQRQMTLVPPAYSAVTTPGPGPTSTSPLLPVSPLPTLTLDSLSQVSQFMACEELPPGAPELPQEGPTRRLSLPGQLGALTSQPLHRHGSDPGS

This assay concerns the target human ether-à-go-go-related gene (hERG) potassium channel (human, UniProt Q12809). In words: primary screen, population patch clamp on CHO cells stably expressing hERG.
Turning to `C/C(=N\OCC(=O)NC12CC3CC(CC(C3)C1)C2)c1cc2ccccc2o1`, the “hERG current change (%, negative = inhibition) at 1uM” value is -4.89%. With `CC(c1ccco1)N(C(=O)c1ccccc1NS(=O)(=O)c1ccc(Cl)c([N+](=O)[O-])c1)c1ccccn1` (stereo not drawn), the “hERG current change (%, negative = inhibition) at 1uM” value came out at 3.81%. In the case of `O=C(C1CCCN(Cc2ccccc2)C1)N1CCCCC1.O=C(O)C(=O)O` (stereo not drawn), the “hERG current change (%, negative = inhibition) at 1uM” value came to 13%.

As for `CC1CCCCC12NC(=O)N(CC(=O)Nc1ccc(N3CCOCC3)cc1)C2=O` (stereo not drawn), the “hERG current change (%, negative = inhibition) at 1uM” value came to 4.35%.

With `CCOC(=O)c1sc(NC(=O)CS(=O)(=O)c2ccc(C)cc2)nc1C`, the “hERG current change (%, negative = inhibition) at 1uM” value is 8.72%. To `COc1ccc(CCC(=O)Nc2nc3c(s2)CN(C)CC3)cc1OC` belongs 16.7%.

With `Cc1cc(C)n(CC2CC(=O)N(c3ccc(F)c(Cl)c3)C2=O)n1` (stereo not drawn), the “hERG current change (%, negative = inhibition) at 1uM” value was determined as 8.51%. `CCn1c(COc2ccccc2C)nnc1SCC(=O)OC`: the “hERG current change (%, negative = inhibition) at 1uM” value was -3.42%. Regarding `COc1cccc(NC2=NCCCCC2)c1`, the “hERG current change (%, negative = inhibition) at 1uM” value came to 7.57%. The result for `COc1ccc(CCNC(=O)C2CCN(S(=O)(=O)c3ccc(SC)cc3)CC2)cc1` reads 14.8%; that for `CCOC(=O)N1CCN(C(=O)/C(=C/c2ccc(Cl)cc2)NC(=O)c2ccccc2)CC1`, -38.6%. Turning to `O=C(CCCC(=O)c1ccc(O)cc1)c1ccc(O)cc1`, the “hERG current change (%, negative = inhibition) at 1uM” value is reported as -0.188%. The result for `Cc1ccc(S(=O)(=O)N(C)C)cc1NC(=O)COC(=O)Cc1n[nH]c(=O)c2ccccc12` reads 10.7%; that for `CCOc1ccc(C2=CC(=O)C[C@H](c3ccc(OC)cc3)C2)cc1`, 13.3%.

Turning to `O=C(NCCN1CCOCC1)c1cc(S(=O)(=O)NCCCN2CCCC2=O)ccc1Cl`, the “hERG current change (%, negative = inhibition) at 1uM” value is given as 8.55%. To `Cc1ccc(NC(=O)CSc2nc(C)c(C)c(C)n2)c([N+](=O)[O-])c1` belongs 9.55%; to `COc1ccc(-n2ccnc2CN2CCN(C3CCCC3)C(CCO)C2)cc1` (stereo not drawn), 5.31%. Take `COc1cccc(C2C=C(c3ccc(OC)cc3OC)Nc3nnnn32)c1` (stereo not drawn): the “hERG current change (%, negative = inhibition) at 1uM” value is 13.8%. For the compound `CCOc1ccccc1NC(=O)Nn1cnnc1`, the “hERG current change (%, negative = inhibition) at 1uM” value amounted to 9.42%. As to `Cc1cc(/C=N/Nc2ccc([N+](=O)[O-])cn2)c(C)n1-c1cccc(C(=O)O)c1`, the “hERG current change (%, negative = inhibition) at 1uM” value worked out at 11.3%. The result for `O=C(COc1ccc([N+](=O)[O-])cc1)NNC(=S)NC(=O)c1ccc(Br)cc1` reads 7.7%; that for `NC(=O)SCC(=O)Nc1ccc(Cl)c(Cl)c1`, -0.294%. With `CCOc1ccc(NC(=O)CCNC(=O)Cn2cnc3ccccc3c2=O)cc1`, the “hERG current change (%, negative = inhibition) at 1uM” value was 18.9%. To `Cc1cc(C)nc(SCc2nnc(SCC(=O)NCc3ccco3)n2-c2ccccc2)n1` belongs -9.04%.

Consider `Cc1ccc(Cl)cc1NC(=O)COC(=O)C1CC1`, for which the “hERG current change (%, negative = inhibition) at 1uM” value amounted to 5.65%.

For `COc1ccc(NC(=O)c2n[nH]c(=O)c3ccccc23)cc1S(=O)(=O)N1CCCCC1`, the “hERG current change (%, negative = inhibition) at 1uM” value is on record as 11.3%.

With `O=C(Cn1nnc(-c2ccccc2)n1)N1CCN(c2ccc(F)cc2)CC1`, the “hERG current change (%, negative = inhibition) at 1uM” value was 7.89%. `CCOC(=O)c1c(C)[nH]c(C)c1C(=O)CSc1nnc(-c2ccc(OC(F)F)cc2)o1`: the “hERG current change (%, negative = inhibition) at 1uM” value is given as 9.18%. For `Cc1ccc(-c2nc(CS(=O)CC(=O)NCc3ccco3)c(C)o2)cc1` (stereo not drawn), the “hERG current change (%, negative = inhibition) at 1uM” value came to 11.5%. The result for `CCCNC(=O)CN(C)C(=O)c1n[nH]c2ccccc12` reads -8.69%. On to `COc1ccc(NC(=O)CSc2nnc3ccc(-c4cccnc4)nn23)c(OC)c1`, for which the “hERG current change (%, negative = inhibition) at 1uM” value was 10.2%. On to `COc1cccc(C(=O)Nc2ccccc2OC(F)(F)F)c1`, for which the “hERG current change (%, negative = inhibition) at 1uM” value was 5.06%. For `CC(C)(C)C(=O)NCC12C=CC(O1)C1C(=O)N(c3ccccc3)C(=O)C12` (stereo not drawn), the “hERG current change (%, negative = inhibition) at 1uM” value amounted to 8.36%. The result for `CSc1ccccc1NC(=S)NCc1ccc(Cl)cc1` reads 6.28%.

In the case of `CSc1nc2ncc3c(n2n1)CC1c2ccccc2CCN1C3=O` (stereo not drawn), the “hERG current change (%, negative = inhibition) at 1uM” value is recorded as -8.39%.

With `COc1cc(/C=C/C(=O)O)cc(S(=O)(=O)N2CCc3ccccc3C2)c1OC`, the “hERG current change (%, negative = inhibition) at 1uM” value was 11.8%. `O=C(COC(=O)/C=C/c1ccc(Cl)cc1)NCCC1=CCCCC1`: the “hERG current change (%, negative = inhibition) at 1uM” value is recorded as 12.5%. Turning to `CCCCN=c1sc(C(=O)OC)cc(=O)n1CCCC`, the “hERG current change (%, negative = inhibition) at 1uM” value is 14.4%. `O=C(CN1CCN(c2ccccc2F)CC1)Nc1ccc2c(c1)CCC2`: the “hERG current change (%, negative = inhibition) at 1uM” value is reported as -3.97%. To `Cc1csc2nc(SCC(=O)Nc3ccccc3F)[nH]c(=O)c12` belongs 11.5%; to `O=C(Cn1nc(C(F)(F)F)c2c1CCCC2)NC1CCCC1`, -8.2%.

`C[C@H]1COC2=C1C(=O)C(=O)c1c2ccc2c1CCCC2(C)C`: the “hERG current change (%, negative = inhibition) at 1uM” value worked out at 6.53%.

As to `CN1CCC(N(C)S(=O)(=O)c2ccc(NC(=O)Cc3ccc(F)cc3)cc2)CC1`, the “hERG current change (%, negative = inhibition) at 1uM” value is on record as 12.9%. The result for `Cc1nnc(SCC(=O)NC2CCCc3ccccc32)n1-c1ccccc1` (stereo not drawn) reads 4.51%. Take `Cc1cc(Cl)nc(NC(=O)Nc2cccc(Cl)c2)n1`: the “hERG current change (%, negative = inhibition) at 1uM” value is on record as 13%.
